From paper PMC12040169 (PLOS Biology, 2025)
The list shows a part of the results.

test system: T1, C. trachomatis L2/434/Bu expressing GFP (CTL2-GFP); set-up: species or system HeLa; C. trachomatis total inclusion area by high-content imaging, normalised to DMSO; details: total inclusion area; 28.5 h, 10 µM; inhibitor
T1 construct: L2/434/Bu GFP intracellular growth in HeLa cells
Method in brief: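 Post-fluorescence-read fixation, DNA staining with Hoechst and high-content imaging; GFP inclusion area and number per well, and nuclei counts, used as proxies for bacterial growth and host viability.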

Going from COc1ccc(CC(C(=O)Nc2ccc3nc[nH]c(=O)c3c2)c2ccccc2)cc1 (stereo not shown) [CBK285863] to CCNS(=O)(=O)c1ccc(NC(=O)c2cc(-c3ccccn3)nc3c(C)c(C)ccc23)cc1 [CBK267733], the “% of control remaining” value falls from 110.637 to 78.0978.

Going from O=S(=O)(c1cc(Cl)sc1Cl)N1CCCCC1CO (stereo not shown) [CBK051422] to CCC1CCCCN1C(=O)c1cncc(Br)c1 (stereo not shown) [CBK076699], the “% of control remaining” value rises from 82.794 to 86.2943.

Compared with C[C@H](Nc1nccnc1-c1ccco1)c1ccccc1 [CBK037032], Cn1c(SCC(=O)c2ccccc2)nc2ccccc2c1=O [CBK055260] is lower in “% of control remaining” value: 148.805 for the first, 107.214 for the second.

Going from O=C(COc1ccccc1Cl)N/N=C/c1ccc(-c2ccccc2[N+](=O)[O-])o1 [CBK262782] to O=C(N/N=C/c1c(F)cccc1Cl)c1ccccc1O [CBK261815], the “% of control remaining” value falls from 102.146 to 82.4882.

Going from C=CCn1c(Cc2csc(NC(=O)c3cnc(C)cn3)n2)n[nH]c1=S [CBK295319] to CC(=O)c1sc(NC(=O)c2ccc(Br)o2)nc1C [CBK057948], the “% of control remaining” value falls from 95.7996 to 70.6291.

Going from c1ccc2c(c1)CCN(Cc1ncc[nH]1)C2 [CBK126402] to Cn1nccc1CN1CCC(Oc2ccccc2F)CC1 [CBK281618], the “% of control remaining” value rises from 99.5437 to 101.336.

Compared with O=C(NCc1ccco1)C1(c2ccccc2)CCCC1 [CBK149539], COc1ccc(C2(C(=O)NCc3ccc4c(c3)OCO4)CC2)cc1 [CBK149829] is lower in “% of control remaining” value: 85.5492 for the first, 71.2623 for the second.

Compared with CC(=O)c1cc(CN2CCCOC(Cn3cccn3)C2)cs1 (stereo not shown) [CBK307365], Cc1cnn(CC(=O)N2CCCC(COc3ccccc3F)C2)c1 (stereo not shown) [CBK281999] is higher in “% of control remaining” value: 51.061 for the first, 115.356 for the second.

First: O=C(Nc1ccc(N2CCN(Cc3ccccc3)CC2)cc1)c1cncc(Br)c1 [CBK267093]
Second: O=C(c1cc2ccccc2[nH]1)N1CCN(Cc2ccccc2)CC1 [CBK200172]
The “% of control remaining” value of the first is higher: 112.13 for the first, 92.839 for the second.

Compared with CC(C)c1ccc(S(=O)(=O)N(c2ccccc2)C2CCNCC2)cc1 [CBK165088T], Cc1ccc(S(=O)(=O)N(C)c2ccnc(N3CCNCC3)n2)cc1 [CBK200009] is higher in “% of control remaining” value: 69.558 for the first, 92.3796 for the second.

Compared with O=C(CSCc1cccc(Cl)c1)Nc1cccnc1 [CBK264114], O=C(CCn1c(-c2cccnc2)cc2cccnc21)NC1CC1 [CBK282622] is higher in “% of control remaining” value: 82.8775 for the first, 119.941 for the second.

Going from CN1CCN(C(=O)CNS(=O)(=O)c2ccc3ccccc3c2)CC1 [CBK042205] to COCC(=O)N1CCN2C(=O)N(Cc3ccccc3)C(=O)[C@H]2C1 [CBK289641], the “% of control remaining” value falls from 84.9648 to 69.531.

First: CC(=O)Oc1ccc(N2C(=O)CCSC2=S)cc1 [CBK005283]
Second: COc1ccc(-n2ncc3c2CC(C)(C)CC3NC(=O)C2CC2)cc1 (stereo not shown) [CBK282337]
The “% of control remaining” value of the first is lower: 65.4183 for the first, 100.605 for the second.

First: O=[N+]([O-])c1ccc(Cl)c(C2N(Cc3ccccc3)CCN2Cc2ccccc2)c1 [CBK261601]
Second: O=[N+]([O-])c1ccc(CN2CCN(c3nccnc3OCC3COc4ccccc4O3)CC2)cc1 (stereo not shown) [CBK082791T]
The “% of control remaining” value of the first is higher: 97.3518 for the first, 67.3905 for the second.

Going from O=C(O)[C@H](Cc1ccccc1)Nc1ncnc2[nH]cnc12 [CBK287090] to O=C(O)CC1SC(=O)N(c2ccccc2)C1=O (stereo not shown) [CBK287085], the “% of control remaining” value rises from 96.8856 to 112.067.

Compared with FC(F)(F)c1cccc(OCCCc2ccncc2)n1 [CBK115795], CCCCOc1ccc2c(C(F)(F)F)cc(=O)oc2c1 [CBK097821] is lower in “% of control remaining” value: 116.545 for the first, 76.5836 for the second.

Compared with O=S(=O)(NCC(Sc1ccc(F)cc1)c1ccccc1)c1ccc(Cl)cc1 (stereo not shown) [CBK266306], O=S(=O)(Cc1ccc(Br)cc1F)c1ccccn1 [CBK019368] is lower in “% of control remaining” value: 127.779 for the first, 87.9217 for the second.

Going from C=CCN1CCCC[C@H]2CN(S(=O)(=O)c3cccc(F)c3)C[C@H]21 [CBK285500] to O=C(Cn1cnc2ccc(F)cc2c1=O)N1CCOC2CCCCC21 (stereo not shown) [CBK253316], the “% of control remaining” value rises from 78.7762 to 88.3604.

First: O=S(=O)(c1c(Cl)cccc1Cl)n1ccc2c(N3CCNCC3)nccc21 [CBK059060C]
Second: CCN(c1cc(N2CCCNCC2)ccc1NS(=O)(=O)c1cccc2cccnc12)S(C)(=O)=O [CBK000014C]
The “% of control remaining” value of the first is higher: 90.8384 for the first, 46.6131 for the second.

First: CC1(CC(=O)N2CCCCCC2)SC(NC2CCCCCC2)=NC1=O (stereo not shown) [CBK074269]
Second: O=C1COc2ccccc2CCCCC2(CCCN(C(=O)CN3CCCC3=O)C2)CN1 (stereo not shown) [CBK291992]
The “% of control remaining” value of the first is lower: 89.0444 for the first, 109.408 for the second.

Going from FC(F)(F)c1ccc(CN2CCCN(c3cc(OC4CCCCC4)ncn3)CC2)cc1 [CBK083277T] to FC(F)(F)c1ccnc(OCCN2CCOCC2)c1 [CBK113286], the “% of control remaining” value rises from 53.5808 to 94.8644.

First: O=c1[nH]nc2cc(NCc3ccc(Cl)cc3)ncn12 [CBK288479]
Second: O=C(O)c1cc(-c2cc(Cl)ccc2Cl)nc2ccccc12 [CBK265391]
The “% of control remaining” value of the first is lower: 90.565 for the first, 115.784 for the second.

Going from CN(C)CCN(C)c1nc(-c2ccc3[nH]ccc3c2)cn2ccnc12 [CBK066276] to CN(C)CCN(C)Cc1ccc2ccc3cccc4ccc1c2c34 [CBK261860], the “% of control remaining” value rises from 96.6352 to 109.43.

First: COc1ccc(-c2cc(C(F)(F)F)nc(SCC(=O)N(C)c3ccccc3)n2)cc1OC [CBK267628]
Second: Cc1nc2c3ccccc3nc(SCC(=O)Nc3ccccc3)n2n1 [CBK295205]
The “% of control remaining” value of the first is higher: 88.4805 for the first, 11.3025 for the second.

Going from COc1ccc2nc(C)c(CCC(=O)O)c(O)c2c1 [CBK286955] to CCc1nnc(SCC(=O)Nc2cccc(OC)c2)[nH]1 [CBK270226], the “% of control remaining” value rises from 111.588 to 111.754.

Going from CSc1nc(NC(=O)c2ccoc2)cc(N2CCNCC2)n1 [CBK050314T] to COC(=O)CCC(=O)N1CCCC2(CCN(C(=O)c3ccoc3)C2)C1 (stereo not shown) [CBK160988], the “% of control remaining” value rises from 75.6818 to 100.363.

Going from O=C(O)c1ccc(C(=O)Nc2cccc(NC(=O)C3CCCO3)c2)cc1 (stereo not shown) [CBK268613] to Cc1ccc(C(=O)NCCCNC(=O)c2ccncc2)cc1 [CBK269477], the “% of control remaining” value rises from 102.298 to 108.373.

Compared with COc1cc(C(=O)N2CCN(C(=O)CC(C)C)CC2)cc(OC)c1OC [CBK003604], COc1ccc(C)cc1CC(=O)N1CCc2c(sc3ncnc(N)c23)C1 [CBK305878] is higher in “% of control remaining” value: 32.461 for the first, 41.9646 for the second.

Going from CC(=O)c1ccc(C(=O)N2CCC3(CC2)CC(=O)c2ccc4ccccc4c2O3)cc1 [CBK156458] to O=C1NCC(C(=O)N2CCC3(CC2)CC(=O)c2cc(Br)ccc2O3)N1 (stereo not shown) [CBK156475], the “% of control remaining” value rises from 96.1377 to 99.4606.

Going from O=c1c2cc(F)ccc2nc2n1CCN(Cc1cccs1)CC2 [CBK284859] to NC(=O)C1CCN(C2=NC(=O)/C(=C/c3cn(-c4ccccc4)nc3-c3cccs3)S2)CC1 [CBK265179], the “% of control remaining” value rises from 88.6206 to 113.727.

First: Cc1cccnc1C(Cc1ccsc1)NC(=O)CCc1ccno1 (stereo not shown) [CBK284804]
Second: Nc1c(-c2ccsc2)cnc2ncccc12 [CBK083707]
The “% of control remaining” value of the first is higher: 117.943 for the first, 108.881 for the second.

Compared with O=C(c1ccccc1[N+](=O)[O-])n1nc(-c2cccnc2)nc1NCc1cccs1 [CBK269094], Fc1cccc2sc(Nc3nc(-c4cccs4)cs3)nc12 [CBK287476] is lower in “% of control remaining” value: 89.0847 for the first, 88.4292 for the second.

First: O=C(O)c1c2c(nc3ccccc13)C(=Cc1ccc3c(c1)OCCO3)CC2 [CBK297479]
Second: O=c1[nH]c2ncc(-c3cccc4ncccc34)nc2n1C1CCCCC1 [CBK064861]
The “% of control remaining” value of the first is lower: 79.7756 for the first, 84.615 for the second.

Going from Cc1cc(C(=O)N2CCc3c(sc4ncnc(N)c34)C2)on1 [CBK306067] to NC(=O)c1c(NC(=O)CSc2ccc(Cl)cc2)sc2c1CCCC2 [CBK263101], the “% of control remaining” value rises from 32.5897 to 106.309.

Going from Cn1cc(-c2nc(C3COCCN3Cc3c(F)cccc3Cl)no2)cn1 (stereo not shown) [CBK305441] to Cc1cccc(=O)n1CCCNc1cc(C2CCOC2)ncn1 (stereo not shown) [CBK306992], the “% of control remaining” value rises from 76.2287 to 99.5629.

First: CCOc1ccccc1CN1CC2CCCN2C[C@@H]1C (stereo partly shown) [CBK285435]
Second: CN(C)CCN(C)C(=O)C1CCN(c2cncc(-c3ccc(O)cc3)n2)CC1 [CBK126928T]
The “% of control remaining” value of the first is higher: 107.039 for the first, 101.024 for the second.

Compared with CC(C)(C)c1cc(CCCOC(=O)CNc2ccccc2)cc(C(C)(C)C)c1O [CBK261939], COCCSc1nc2c(c(=O)[nH]c(=O)n2C)n1CCCc1ccccc1 [CBK140504] is higher in “% of control remaining” value: 78.4539 for the first, 110.178 for the second.

Compared with N#Cc1cn(S(=O)(=O)c2cccc(C(F)(F)F)c2)nc1N [CBK067225], O=S(=O)(Nc1ccc(C(O)(C(F)(F)F)C(F)(F)F)cc1)c1ccc(N2CCOCC2)nc1 [CBK062100] is higher in “% of control remaining” value: 52.2372 for the first, 70.8688 for the second.

Going from Cn1ccnc1C1(O)CC2CCC(C1)N2C(=O)C1CCCC1 (stereo not shown) [CBK284052] to Cc1cc(C#N)ccc1OCC(=O)NC1CCS(=O)(=O)C1 (stereo not shown) [CBK305816], the “% of control remaining” value falls from 85.5954 to 85.1145.

Compared with CCOc1ccc(NC(=O)N(C)Cc2noc(CC(C)C)n2)cc1C#N [CBK307089], COc1ccc(C(=O)C2=C(O)C(=O)N(CCCN(C)C)C2c2ccc(Cl)c(Cl)c2)cc1 (stereo not shown) [CBK264723] is higher in “% of control remaining” value: 61.1701 for the first, 99.5516 for the second.

Going from Cc1sc2nc(SCc3nc4ccccc4[nH]3)n(-c3ccc(Cl)c(Cl)c3)c(=O)c2c1C [CBK264594] to CCNc1nnc(-c2c(Cl)c(C)nn2C)s1 [CBK288014], the “% of control remaining” value rises from 96.6567 to 114.724.
